In the supplement of paper PMC12217912:
This is one part of the list. Sequences were assembled here from the parent chain. Values near 0.05 are background.

B1: TEV protease; numbered along this chain (parent)
chain: MGESLFKGPRDYNPISSSICHLTNESDGHTTSLYGIGFGPFIITNKHLFRRNNGTLVVQSLHGVFKVKDTTTLQQHLVDGRDMIIIRMPKDFPPFPQKLKFREPQREERICLVTTNFQTKSMSSMVSDTSCTFPSGDGIFWKHWIQTKDGQCGSPLVSTRDGFIVGIHSASNFTNTNNYFTSVPKNFMELLTNQEAQQWVSGWRLNADSVLWGGHKVFMVKPEEPFQPVKEATQL

Variants of: B1
Assay: raw area under fraction-flipped curve 0-4 h after induction (AUC4h, not background-subtracted), DNA-recorder readout of cleavage of the substrate (dimensionless); higher = more cleavage of the substrate by the protease variant
Conditions: temperature: 34 °C; time window: 0-4 h after rhamnose induction
Description: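 In vivo DNA recorder in E. coli TOP10(DE3) ΔrhaA at 34 °C. Each TEVp single-site mutant (parent TEVp 0) is paired with a single-site variant of the 7-mer TEVs (canonical ENLYFQ|S). The substrate sits between flexible linkers in a Bxb1-sfGFP-TEVs-SsrA fusion, so cleavage stabilises Bxb1 and speeds flipping of a recombination array, read by NGS. The value is the raw area under the fraction-flipped curve over 0-4 h after rhamnose induction (AUC4h), with ≥20 reads per time point. It is not background-subtracted; inactive controls average about 0.047.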
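Further: Bxb1 expression induced with 0.2% (w/v) L-rhamnose at OD600 near 0.5, cultures sampled hourly, flipped fraction per protease–substrate barcode pair counted by paired-end Illumina sequencing.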

Variant	area with substrate ENLYFQC	area with substrate ENLYFQD	area with substrate ENLYFQF	area with substrate ENLYFQG	area with substrate ENLYFQI	area with substrate ENLYFQK	area with substrate ENLYFQL	area with substrate ENLYFQM	area with substrate ENLYFQN	area with substrate ENLYFQP	area with substrate ENLYFQR	area with substrate ENLYFQS	area with substrate ENLYFQT	area with substrate ENLYFQV	area with substrate ENLYFQW	area with substrate ENLYFQY	area with substrate ENLYFQH	area with substrate ENLYFQQ	area with substrate ENLYFQE
V67H	0.105	0.0732	0.0629	0.103	0.0508	0.0597	0.0552	0.0894	0.0819	0.0606	0.0472	0.0965	0.0679	0.0504	–	–	–	–	–
Q151F	0.112	–	–	0.089	–	0.0394	0.0482	0.0507	–	–	–	0.0792	0.0629	–	0.0447	0.0558	–	–	–
F173Q	0.0957	–	0.0713	0.09	0.0681	–	0.0599	–	0.0273	–	0.0599	0.0822	–	–	0.0522	–	0.062	0.0728	–
F173W	0.117	0.0626	0.0506	0.0946	–	–	0.0571	–	–	0.0795	0.0768	0.0996	0.0637	–	0.0657	0.0616	0.0818	0.072	–
Q227R	0.103	–	–	0.0746	0.0728	0.0653	–	–	0.0901	–	–	0.101	0.0981	0.0674	0.0527	0.04	–	–	–
T30V	0.101	0.0676	–	–	0.0747	–	0.0608	0.145	–	–	0.0628	0.113	–	0.0633	0.0793	–	0.0973	–	–
L61V	0.123	–	–	–	0.0756	0.0662	–	–	–	–	0.0624	0.105	0.0642	–	–	–	–	–	–
N178T	0.0716	–	–	0.0665	0.0555	0.0644	–	0.0658	0.0664	0.0542	0.0628	0.0713	0.0515	0.0573	0.0625	0.0586	0.0585	0.0636	–
P228A	0.098	–	–	0.0931	–	0.0587	0.0703	0.0884	0.0682	–	0.0519	0.102	0.0693	–	–	0.0743	0.0899	–	0.0791
P228E	0.116	0.0863	0.0428	–	–	0.0657	0.0617	–	–	0.046	–	0.106	–	0.071	–	–	–	–	–
P222R	0.0943	–	–	0.089	0.0549	0.0852	0.061	0.0858	0.0638	0.064	0.0637	0.0895	0.0784	0.0765	–	–	0.0829	–	–
T55K	0.148	0.0727	–	0.107	0.0548	0.0638	0.0606	0.0921	0.0808	0.0546	0.0611	0.103	0.0604	0.0623	–	0.0741	0.0831	–	–
S209L	0.11	–	–	0.0906	–	0.0552	–	–	0.0856	0.0557	0.0642	0.0913	–	–	–	–	0.0789	–	–
K68N	0.133	–	–	0.0934	0.0557	–	0.0584	0.106	0.0862	–	–	0.0997	0.0703	–	0.102	0.0683	0.0638	–	–
D82E	0.0679	–	–	0.135	0.0654	0.0929	–	0.0981	0.0431	–	0.0639	0.0755	0.0638	0.0701	0.0588	–	–	–	–
Q197P	0.132	0.103	0.0997	–	–	–	0.0593	–	0.0704	–	–	0.101	0.0694	0.0721	0.0592	0.0931	0.0957	–	–

Variant	area with substrate ENLYFQC	area with substrate ENLYFQD	area with substrate ENLYFQF	area with substrate ENLYFQG	area with substrate ENLYFQI	area with substrate ENLYFQK	area with substrate ENLYFQL	area with substrate ENLYFQM	area with substrate ENLYFQN	area with substrate ENLYFQP	area with substrate ENLYFQR	area with substrate ENLYFQS	area with substrate ENLYFQT	area with substrate ENLYFQV	area with substrate ENLYFQW	area with substrate ENLYFQY	area with substrate ENLYFQH	area with substrate ENLYFQQ	area with substrate ENLYFQE
I167H	0.0794	–	0.0442	0.0869	0.0411	–	–	0.0493	0.0488	–	0.0527	0.0667	0.0458	0.0656	–	0.0695	0.062	–	–
C111R	0.103	0.076	–	0.128	–	0.092	–	–	0.0651	–	0.0369	0.109	–	–	–	–	0.0642	–	–
V210F	0.125	0.0545	–	–	0.0535	0.0616	0.0564	–	–	–	0.057	0.0924	–	–	0.0605	–	0.063	0.063	–
F38D	0.0493	–	–	–	0.0358	–	–	0.022	–	–	–	0.07	–	–	–	–	–	–	–
K7P	0.0829	–	–	0.088	–	0.0663	–	0.0516	0.0894	0.0896	–	0.0946	–	–	–	–	0.069	–	0.0681
I84Q	0.0774	0.0541	–	–	–	0.0589	0.048	0.0624	–	0.0565	0.0575	0.0741	0.0382	0.0511	0.0528	–	–	–	–
G63V	0.0958	–	–	0.0892	0.0573	0.0356	–	0.0856	0.0779	–	0.041	0.0875	0.0601	–	–	0.079	0.0639	0.069	0.0547
I139D	0.0971	–	0.0471	0.0942	0.0515	0.0487	0.071	0.0801	0.0702	0.0583	0.0563	0.102	0.0498	0.059	–	–	0.0876	–	0.0573
K90C	0.111	–	–	–	0.0755	0.0722	0.0612	0.0969	0.073	–	0.0561	0.101	0.0697	–	–	0.0715	–	–	–
K90Y	0.114	–	–	–	0.0534	0.0766	–	–	0.0804	–	0.0637	0.1	–	0.0733	0.0361	–	0.0791	–	–
F187L	0.119	–	–	0.149	–	0.0585	0.046	0.0754	0.0737	–	0.066	0.108	0.0602	0.0447	0.108	–	0.0716	–	0.0897
L33C	0.122	0.0732	–	0.115	0.0609	0.0474	0.0563	–	–	–	0.0566	0.111	0.0798	0.0655	–	–	0.0726	–	0.0577
V217G	0.0531	–	–	–	–	0.0624	–	0.0522	–	–	0.0537	0.0683	–	–	–	0.0509	0.0532	–	–
V217R	0.0603	0.0528	–	–	0.0627	–	0.0529	–	–	0.0544	0.0538	0.0577	–	–	–	–	–	–	–
L211F	0.134	0.0597	–	–	0.0725	0.0674	0.064	0.0811	0.035	–	0.109	0.102	0.0741	0.0628	–	0.0796	0.0794	–	–
K142V	0.147	0.0708	0.0769	–	0.0648	0.0653	0.0671	0.0942	0.0735	0.0542	0.0596	0.0991	0.0741	–	0.0571	0.0786	–	–	–
